Laboratory results taken from PubChem BioAssay AID686978 (National Center for Advancing Translational Sciences (NCATS), 2013).
The campaign covered roughly 420,000 compounds. About 64,000 (15%) were called active. Inconclusive results, whose numbers are uncertain, are shown with a selection of clear calls. Calls come from the whole dose curve; as a rule, active = well fitted inhibition curve with a large enough effect; inconclusive = small, poorly fitted or top-dose-only effect; inactive = flat fitted curve, though single readings scatter. No potency is given beside an inconclusive call; the fits are too rough.
% is set by controls: 0 for no effect and ±100 for the full control effect; potency is the fitted concentration of half-maximal effect; tags give direction and shape of the fitted curve.

Test: qHTS for Inhibitors of human tyrosyl-DNA phosphodiesterase 1 (TDP1): qHTS in cells in absence of CPT; note: nearly all actives have a fitted effect of over 55% in size
Conditions: DT40 Tdp1-/- hTDP1 cells, no CPT, ATP luminescence, 48 h; activity change, negative = growth inhibition: at 46.2 µM (top of the series) unless noted
How it was run: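 Growth of hTDP1-complemented DT40 Tdp1-knockout cells is measured by ATP luminescence after at least 48 hr compound exposure at 37 °C, with DMSO substituting for the 20 nM CPT used in the parallel screen.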
For Nc1ccc(Cl)cc1C(=O)c1ccccc1Cl, the Potency was inconclusive [inhibitor, single point].
For Oc1ccc2c3c1O[C@H]1c4oc5ccccc5c4C[C@@]4(O)C(C2)N(CC2CC2)CC[C@]314, the Potency was inconclusive [inhibitor, single point].
For Cc1c(C(=O)N2CCC3(CC2)OCCO3)oc2ccc(S(=O)(=O)N3CCCCC3)cc12, the Potency was inconclusive [inhibitor, partial curve].
In the case of COc1ccc(CN2CCNCC2)c(OC)c1OC, the Potency is reported as inconclusive [inhibitor, single point].
For Cc1cccc(N2CCC3(CC2)C(=O)NC(=O)NC3=O)c1, the “activity change, negative = growth inhibition” value was inactive: -0.215%.
With Cc1cc(OCC(=O)NCc2cccnc2)c2c3c(c(=O)oc2c1)CCCC3 the Potency was inconclusive [inhibitor, single point].
In the case of Nc1ncn[nH]1, the Potency is reported as inconclusive [inhibitor, partial curve, poor fit].
For Cc1ccc(CCNC(=O)C2CCCN(Cc3nc(-c4cccc(Cl)c4)oc3C)C2)cc1 (centres undefined), the Potency was active: 14.6 µM.
For CCOC(=O)c1c(C)n(Cc2ccccc2)c2ccc(OCC(O)CN3C(=O)CNC3=O)cc12 (centres undefined), the Potency was active: 14.6 µM.
In the case of CCCNC(=O)N1[C@H]2CC[C@@H]1C(C(=O)OC)=C(c1ccc(F)cc1OCc1ccccc1)C2, the Potency is reported as inconclusive [inhibitor, single point].
For COP(=O)(OC)C(NC(C)=O)C(Cl)(Cl)Cl (centres undefined), the activity change, negative = growth inhibition was inconclusive: -30% [inhibitor].
With CC(C)NC[C@H](O)c1ccc(N)c(C#N)c1 the “activity change, negative = growth inhibition” value was inactive: -20.4%.
For CC(NS(C)(=O)=O)c1nnc2n1-c1ccc(Br)cc1C(c1ccccc1Cl)=NC2 (centres undefined), the activity change, negative = growth inhibition was inconclusive: -35.5% [inhibitor].
For CCN1CC2C3CCC(C)(O3)C2C1 (centres undefined), the Potency was inconclusive [inhibitor, full curve].
In the case of O=C1NC(c2cccnc2)Nc2sc3c(c21)CCCC3 (centres undefined), the Potency is reported as inconclusive [inhibitor, single point].
With c1ccc(C(OCCN2CCN(c3ncccn3)CC2)c2ccccc2)cc1 the Potency was inconclusive [inhibitor, partial curve, poor fit].
With C/C(=N\Nc1ccccc1)c1c(O)n(Cc2ccccc2)c(=O)[nH]c1=O the Potency was inconclusive [inhibitor, partial curve].
For CCC1=Nc2cc(C(=O)N3CCC4(CC3)OCCO4)ccc2Sc2ccc(Br)cc21, the Potency was inconclusive [inhibitor, single point].
For Cc1c(C(=O)c2ccc3ccccc3c2)c2cccc3c2n1[C@H](CN1CCOCC1)CO3, the Potency was inconclusive [inhibitor, full curve, poor fit].
